T1: human Neurofascin (Homo sapiens, UniProt O94856)
T1 construct: human Neurofascin (residues 25-1039 with a C-terminal 10×His tag, R&D Systems); purchased R&D Systems
T1 sequence (O94856 25-1039 isoform O94856-3): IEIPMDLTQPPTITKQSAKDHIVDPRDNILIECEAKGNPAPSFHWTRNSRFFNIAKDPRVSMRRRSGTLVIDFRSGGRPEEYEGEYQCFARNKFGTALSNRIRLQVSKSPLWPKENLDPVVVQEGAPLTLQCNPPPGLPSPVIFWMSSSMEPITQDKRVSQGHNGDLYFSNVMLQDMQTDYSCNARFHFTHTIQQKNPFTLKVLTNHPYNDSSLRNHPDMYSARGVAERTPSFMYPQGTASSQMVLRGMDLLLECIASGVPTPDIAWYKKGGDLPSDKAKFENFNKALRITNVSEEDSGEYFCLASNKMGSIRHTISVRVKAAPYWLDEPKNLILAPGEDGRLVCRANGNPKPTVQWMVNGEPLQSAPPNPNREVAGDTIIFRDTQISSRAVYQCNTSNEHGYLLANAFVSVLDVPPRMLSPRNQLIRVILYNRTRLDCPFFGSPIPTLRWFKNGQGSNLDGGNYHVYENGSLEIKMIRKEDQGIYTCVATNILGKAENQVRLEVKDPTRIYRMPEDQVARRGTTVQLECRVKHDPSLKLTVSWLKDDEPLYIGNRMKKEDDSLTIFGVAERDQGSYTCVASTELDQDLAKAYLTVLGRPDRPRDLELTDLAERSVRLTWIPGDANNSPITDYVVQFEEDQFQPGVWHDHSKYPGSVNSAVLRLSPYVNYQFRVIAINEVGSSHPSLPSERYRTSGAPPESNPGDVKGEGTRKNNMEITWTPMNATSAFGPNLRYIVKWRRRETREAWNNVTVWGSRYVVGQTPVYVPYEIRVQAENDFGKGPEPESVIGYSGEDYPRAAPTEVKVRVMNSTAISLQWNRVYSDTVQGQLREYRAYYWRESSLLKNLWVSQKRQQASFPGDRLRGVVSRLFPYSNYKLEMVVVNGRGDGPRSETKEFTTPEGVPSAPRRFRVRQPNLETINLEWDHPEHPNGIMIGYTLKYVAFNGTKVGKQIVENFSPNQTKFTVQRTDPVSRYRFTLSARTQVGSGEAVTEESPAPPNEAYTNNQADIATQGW


Tests used:
[1] = format: physicochemical; details: for increase in methionine oxidation: H2O2 treated sample, mass spectrometry; for SEC-HPLC monomer: criteria >95% monomer; for CE-SDS purity: denaturing (reduction and non-reducing) conditions, criteria >90% purity; for HIC hydrophobicity: establish baseline
Description: Biophysical Characterization. Biophysical characterization of the CHO stable pool-derived material was performed before initiation of the solubility and stress studies to establish baseline concentrations, visual appearance, % monomer (SE-HPLC), thermal unfolding (DSF), hydrodynamic radius (DLS), polydispersity (DLS), intact mass (LC-MS) and post-translational modifications within the CDRs (LC-MS).
Forced Stress Studies. […] The starting material for all tests was formulated in 1×PBS at 20 mg/ml.
Freeze/Thaw of TDI-Y-004 and TDI-Y-005. Samples were evaluated after 5 slow freeze/thaw cycles.
Oxidative Stress of TDI-Y-004 and TDI-Y-005. Samples were exposed to 0.1% (w/v) H202 and tert-Butyl Hydroperoxide (tBHP) for 24 hours, visually inspected and then buffer exchanged back to 1×PBS. […] Given that these residues are known to be surface-exposed, the results were expected.
pH Stress of TDI-Y-004 and TDI-Y-005. Samples were buffer exchanged to 50 mM acetate buffer pH 3.5 or 50 mM Tris-HCl buffer pH 9.0, and incubated overnight at room temperature. Samples were then buffer exchanged to 1×PBS solution.
Thermal Stress of TDI-Y-004 and TDI-Y-005. Antibody formulated in 1×PBS or 20 mM His, 150 mM NaCl, pH6.0 at 20 mg/ml was subjected to extended thermal stress. Samples were incubated at 37° C. for 1 or 2 weeks.

[2] = molecular target: HEK293T cells overexpressing human L1CAM (Homo sapiens, UniProt P32004); experiment: Flow cytometry binding to HEK293T cells overexpressing human L1CAM; parameters: expressed in transfected cells
Description: Hybridoma Screening. Binding to human L1CAM protein was tested by ELISA and to a HEK293T cell line overexpressing human L1CAM by flow cytometry. […] Cross-reactivity to cynomolgus L1CAM was not assessed at this point, as it is >99% homologous to human L1CAM. […] The antibodies were tested for binding to MDA-MB-231 cells, a breast cancer cell line that endogenously expresses L1CAM, followed by analysis of their internalization efficacy in MDA-MB-231 cells.
Binding Analysis. […] Dissociation constants (KD) for binding to soluble human and cynomolgus monkey L1CAM-His were determined using biolayer interferometry (BLI). In addition, EC50 values for binding to cell-bound L1CAM were established by flow cytometry using HEK293T/FT cells overexpressing human or mouse L1CAM, MCF-7 cells, and MDA-MB-231 cells. In addition, the epitope regions of the mAbs were determined by BLI interaction analysis with L1CAM subdomains (Ig and FN) expressed individually, and by a BLI competition experiment to identify epitope bins.
Binding to L1CAM on Cells. […] Cells were then incubated with an AlexaFluor 647 goat anti-human Fc secondary antibody. After washing, the stained cells were analyzed by flow cytometry.

human Neurofascin = molecular target: T1, human Neurofascin; experiment: Selectivity ELISA, Neurofascin; format: binding; details: for binding to Neurofascin: 1 μM antibody; for Binding to human Neurofascin: at 1 μM
From the text: Selectivity. […] These proteins are other members of the L1 family of cell adhesion proteins and have between 49% and 55% sequence similarity with L1CAM in the extracellular portion. […] Positive control antibodies were included for each homolog. […] Epitope. The extracellular portion of L1CAM contains six immunoglobulin-like (Ig) domains and five fibronectin type III (FN) domains. To narrow down the binding region of the development candidate mAbs, truncated versions of human L1CAM protein (Ig domain, residues 21-605; FN domain, residues 606-1116; each with a C-terminal 6×His tag) were recombinantly produced, followed by a BLI experiment to test binding at 50 and 100 nM. […] 6×His tag is set forth in SEQ ID NO: 316.

mouse L1CAM = mouse L1CAM (Mus musculus, UniProt P11627); experiment: BLI binding to mouse L1CAM
Description: Cross-reactivity to Mouse L1CAM. Affinity to mouse L1CAM was measured by BLI using an Octet Red96e instrument. […] The data was prepared by reference well subtraction, and response curves were globally fit to a 1:1 Langmuir binding model.

Chain of mouse L1CAM (P11627 20-1260): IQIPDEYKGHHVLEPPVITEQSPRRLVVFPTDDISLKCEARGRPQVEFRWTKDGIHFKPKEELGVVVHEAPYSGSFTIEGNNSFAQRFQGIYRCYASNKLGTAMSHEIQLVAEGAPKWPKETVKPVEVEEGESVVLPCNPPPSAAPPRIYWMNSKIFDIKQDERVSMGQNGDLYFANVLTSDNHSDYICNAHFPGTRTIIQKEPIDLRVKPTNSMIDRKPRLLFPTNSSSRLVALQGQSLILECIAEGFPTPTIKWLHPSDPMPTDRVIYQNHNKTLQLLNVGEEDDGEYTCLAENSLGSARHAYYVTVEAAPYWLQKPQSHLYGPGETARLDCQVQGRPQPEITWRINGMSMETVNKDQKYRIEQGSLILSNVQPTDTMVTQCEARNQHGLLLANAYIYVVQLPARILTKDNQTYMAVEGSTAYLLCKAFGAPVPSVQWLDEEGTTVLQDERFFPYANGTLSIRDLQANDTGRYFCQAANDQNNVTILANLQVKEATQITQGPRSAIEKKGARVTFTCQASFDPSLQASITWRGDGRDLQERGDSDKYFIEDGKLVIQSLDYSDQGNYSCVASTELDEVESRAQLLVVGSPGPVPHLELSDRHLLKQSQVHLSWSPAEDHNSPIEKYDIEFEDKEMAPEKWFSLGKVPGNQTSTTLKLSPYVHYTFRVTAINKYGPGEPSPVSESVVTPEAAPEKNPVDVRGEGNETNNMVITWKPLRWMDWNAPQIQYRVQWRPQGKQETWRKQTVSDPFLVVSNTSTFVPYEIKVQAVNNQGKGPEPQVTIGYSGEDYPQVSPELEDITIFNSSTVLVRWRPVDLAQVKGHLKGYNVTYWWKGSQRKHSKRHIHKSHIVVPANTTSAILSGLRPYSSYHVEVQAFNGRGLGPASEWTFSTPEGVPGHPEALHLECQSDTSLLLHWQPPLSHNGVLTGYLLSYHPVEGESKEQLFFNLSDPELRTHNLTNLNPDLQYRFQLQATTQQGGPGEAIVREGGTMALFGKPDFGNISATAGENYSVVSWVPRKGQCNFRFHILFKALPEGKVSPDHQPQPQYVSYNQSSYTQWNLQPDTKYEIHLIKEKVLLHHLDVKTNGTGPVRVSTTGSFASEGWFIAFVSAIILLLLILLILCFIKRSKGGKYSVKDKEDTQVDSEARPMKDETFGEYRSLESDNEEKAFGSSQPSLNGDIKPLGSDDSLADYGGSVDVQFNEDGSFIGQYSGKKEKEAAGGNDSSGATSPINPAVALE
Chain of HEK293T cells overexpressing human L1CAM (P32004 20-1257): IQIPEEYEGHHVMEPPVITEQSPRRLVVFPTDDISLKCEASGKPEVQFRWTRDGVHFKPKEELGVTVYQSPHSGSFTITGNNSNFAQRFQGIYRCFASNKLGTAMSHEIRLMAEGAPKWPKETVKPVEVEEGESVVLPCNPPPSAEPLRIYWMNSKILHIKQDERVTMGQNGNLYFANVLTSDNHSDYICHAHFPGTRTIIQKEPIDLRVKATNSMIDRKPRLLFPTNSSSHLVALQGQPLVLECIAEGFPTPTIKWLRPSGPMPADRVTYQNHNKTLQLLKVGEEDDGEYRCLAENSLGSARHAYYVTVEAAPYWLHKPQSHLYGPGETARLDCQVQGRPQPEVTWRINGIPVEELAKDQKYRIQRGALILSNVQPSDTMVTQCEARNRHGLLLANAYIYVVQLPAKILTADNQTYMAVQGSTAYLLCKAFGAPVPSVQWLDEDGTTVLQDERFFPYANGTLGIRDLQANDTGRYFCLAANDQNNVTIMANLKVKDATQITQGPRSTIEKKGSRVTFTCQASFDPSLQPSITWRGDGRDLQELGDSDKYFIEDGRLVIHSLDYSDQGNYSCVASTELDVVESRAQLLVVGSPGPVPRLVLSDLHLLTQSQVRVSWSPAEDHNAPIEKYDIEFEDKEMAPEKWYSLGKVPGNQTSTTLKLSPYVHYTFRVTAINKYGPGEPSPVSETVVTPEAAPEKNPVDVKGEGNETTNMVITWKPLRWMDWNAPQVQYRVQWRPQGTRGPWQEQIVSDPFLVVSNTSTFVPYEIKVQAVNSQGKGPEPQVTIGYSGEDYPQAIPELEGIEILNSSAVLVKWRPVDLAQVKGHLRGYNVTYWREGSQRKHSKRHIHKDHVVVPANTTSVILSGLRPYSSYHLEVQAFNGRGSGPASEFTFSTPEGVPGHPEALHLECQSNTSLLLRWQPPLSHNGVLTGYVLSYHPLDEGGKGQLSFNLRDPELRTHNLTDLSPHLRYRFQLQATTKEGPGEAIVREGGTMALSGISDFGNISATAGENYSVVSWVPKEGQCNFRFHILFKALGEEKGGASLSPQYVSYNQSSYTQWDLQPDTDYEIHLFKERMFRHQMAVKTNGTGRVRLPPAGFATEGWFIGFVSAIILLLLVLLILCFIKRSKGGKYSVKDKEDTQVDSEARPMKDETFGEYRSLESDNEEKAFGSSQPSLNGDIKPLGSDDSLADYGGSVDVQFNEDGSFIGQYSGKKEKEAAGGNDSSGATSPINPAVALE

Row | Molecule | Forced degradation: H2O2 and tBMP Oxidation [1] | Forced degradation: Low and High pH stress [1] | Forced degradation: Thermal Stress [1] | stability, pH stress [1] | increase in methionine oxidation [1] | SEC-HPLC monomer [1] | CE-SDS purity [1] | HIC hydrophobicity [1] | EC50 for binding to cells [2] | binding to Neurofascin (human Neurofascin) | Binding to human Neurofascin (human Neurofascin) | dissociation constant (KD), mouse L1CAM (mouse L1CAM; BLI Octet Red96e, Ni-NTA biosensors, 1:1 Langmuir fit) | KD (mouse L1CAM; BLI, soluble mouse L1CAM (monomer)) | Thermal stability comparison [1]
1 | TDI-Y-004 (antibody) heavy: QVQLVQSGAEVKKPGSSVKVSCKASGYTFTNYYIHWVRQAPGQGLEWMGKIGPGSGSPYYQGMFKDRVTITADESTSTAYMELSSLRSEDTAVYYCARWLLPFDYWGQGTLVTVSS[human IgG1 constant region not printed] light: EIVLTQSPGTLSLSPGERATLSCRASSSVNYMHWYQQKPGQAPRLLIYATSILASGIPDRFSGSGSGTDYTLTISRLEPEDFAVYYCQQFSSDPLTFGGGTKVEIKRTVAAPSVFIFPPSDEQLKSGTASVVCLLNNFYPREAKVQWKVDNALQSGNSQESVTEQDSKDSTYSLSSTLTLSKADYEKHKVYACEVTHQGLSSPVTKSFNRGEC | Slight acidic shift was observed as a result of H2O2. Peptide mapping and BLI | The molecule was stable under deferent pH conditions | cIEF acidic shift was observed as a result of thermal stress. Peptide mapping and | No significant changes | 98% | SEC analysis indicated that the mAb was > 98% | The molecule had high purity > 98% under denaturing | hydrophobic | single-digit nM range | No binding | No binding at 1 μM | No binding | No binding | 
2 | TDI-Y-005 (antibody) heavy: EVQMVESGGGLVQPGGSLRLSCAAPGFIFSSYNMNWVRQAPGKGLEWVSYISSSSSTTYYADSVKGRFTISRDNAKNSLYLQMNSLRDEDTAVYYCASLYSGYDYYYYYGMDVWGQGTTVTVSS[human IgG1 constant region not printed] light: DIVMTQTPLSSPVSLGQPASISCRSSQSLVHSDGNTYLSWLQQRPGQPPRVLIYKISKRFSGVPDRFSGSGAGTDFTLKISRVEAEDVGVYYCMQATQFPFTFGPGTKVDIKRTVAAPSVFIFPPSDEQLKSGTASVVCLLNNFYPREAKVQWKVDNALQSGNSQESVTEQDSKDSTYSLSSTLTLSKADYEKHKVYACEVTHQGLSSPVTKSFNRGEC | Slight acidic shift was observed as a result of H2O2. Peptide mapping and BLI | The molecule was stable under deferent pH conditions | cIEF acidic shift was observed | No significant changes | 96% | SEC analysis indicated that the mAb was >97% | The molecule had high purity >98% under denaturing | HIC analysis indicated that the mAb was hydrophobic | single-digit nM range | No binding | No binding at 1 μM |  |  | thermally more stable than TDI-Y-005
